From PubChem BioAssay AID1631 (National Center for Advancing Translational Sciences (NCATS), 2009)
The whole screen tested about 260,000 compounds, of which about 890 (0.34%) were called active. The shares of active, inactive and inconclusive entries below differ from those in the screen. Calls come from the whole dose curve; as a rule, active = well fitted activation curve with a large enough effect; inconclusive = small, poorly fitted or top-dose-only effect; inactive = no such curve, though single readings can be large or run the other way. Potencies of inconclusive entries are left out as doubtful fits.

biological target: Pyruvate kinase PKM (Homo sapiens) (UniProt P14618); test: qHTS Assay for Activators of Human Muscle isoform 2 Pyruvate Kinase; conditions: purified PKM2, Kinase-Glo ATP luminescence; Potency: activation; activation: at 57.5 µM (top of the series), 0% is enzyme alone, no compound; note: nearly all actives have a fitted effect of over 55% in size
Summary of the method: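 Purified hPK-M2 (>95% pure) converted ADP (0.1 mM final) to ATP with 0.5 mM PEP in 50 mM imidazole pH7.2, KCl, MgCl2, Tween 20, BSA; 1 h at room temperature. ATP detected by Kinase-Glo luminescence.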
Potency is the fitted concentration of half-maximal effect; tags give direction and shape of the fitted curve.

UniProt P14618, sequence (P14618 whole entry, looked up, canonical isoform): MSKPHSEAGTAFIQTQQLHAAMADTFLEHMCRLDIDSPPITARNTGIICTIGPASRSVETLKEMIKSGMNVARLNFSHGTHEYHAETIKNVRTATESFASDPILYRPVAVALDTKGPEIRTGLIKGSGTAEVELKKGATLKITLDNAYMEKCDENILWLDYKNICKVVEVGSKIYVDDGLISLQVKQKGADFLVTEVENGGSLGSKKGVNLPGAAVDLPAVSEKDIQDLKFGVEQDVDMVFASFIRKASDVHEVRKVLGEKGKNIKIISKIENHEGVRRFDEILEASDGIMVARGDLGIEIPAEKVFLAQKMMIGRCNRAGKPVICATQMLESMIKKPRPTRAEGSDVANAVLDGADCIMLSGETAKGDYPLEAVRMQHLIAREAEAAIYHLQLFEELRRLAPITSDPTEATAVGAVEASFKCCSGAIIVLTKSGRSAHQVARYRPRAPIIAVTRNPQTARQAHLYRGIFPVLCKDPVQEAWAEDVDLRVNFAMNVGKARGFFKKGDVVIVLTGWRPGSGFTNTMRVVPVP

Compound | Potency
Cc1cccc(/C(N)=N/OC(=O)C23CC4CC(CC(C4)C2)C3)c1 | inactive
CC1(C)CC(=O)C2=C(C1)Nc1[nH]c(=S)[nH]c(=O)c1C2c1ccccc1 (stereo unspecified) | inactive
NNC(=O)c1nn(-c2ccc(Cl)cc2)cc1O | inconclusive [rising, single point]
O=C(NCc1ccc(Cl)cc1Cl)C1CCN(S(=O)(=O)c2ccc3c(c2)OCCCO3)CC1 | inconclusive [rising, partial curve]
N#Cc1ccc(-c2ccc(F)cc2)nc1Oc1ccc(Cl)c(Cl)c1 | inactive
C#CCOC(=O)c1csc2nnsc12 | inconclusive [rising, partial curve]
O=C(CCC1N=C2c3ccccc3N=C(SCc3ccc(F)cc3)N2C1=O)NCc1ccco1 (stereo unspecified) | inconclusive [rising, single point]
CC(=O)Nc1ccc(N(C(=O)c2ccco2)C(C(=O)NC2CCCC2)c2ccc(N3CCOCC3)cc2)cc1 (stereo unspecified) | inconclusive [rising, single point]
Cc1cc(=O)[nH]c(NCCO)n1 | inconclusive [rising, single point]
COc1ccccc1N1CCN(C(=O)/C=C/c2ccco2)CC1 | inconclusive [rising, single point]
O=C(O)CCC(=O)N(Cc1cccnc1)Cc1cccc(F)c1 | inconclusive [rising, single point]
Nn1c(SCC(=O)NCc2ccccc2)nncc1=O | inconclusive [rising, partial curve]
CC1CCN(C(=O)/C(=C\c2cccs2)NC(=O)c2ccccc2)CC1 | inactive
COc1ccccc1NC(=O)c1c(NC(=O)c2ccco2)sc2c1CCC2 | inactive
COc1c(O)c(O)cc2c1oc1c3cc(C)ccc3oc(=O)c21 | inconclusive [rising, full curve]
O=C(COc1ccccc1[N+](=O)[O-])N/N=C/c1ccc[nH]1 | inconclusive [rising, partial curve]
Cc1ccc2[nH]c(=O)c(C(c3nnnn3C(C)(C)C)N3CCN(C(=O)c4ccco4)CC3)cc2c1 (stereo unspecified) | active: 25.1 µM
O=C(O)/C=C/c1cn(-c2ccccc2)nc1-c1cc2ccccc2oc1=O | inconclusive [rising, single point]
Cc1cc(O)ccc1NS(=O)(=O)c1ccc2c3c(cccc13)C(=O)N2 | inconclusive [rising, partial curve]
O=C(Nc1cccc(-c2nc3cccnc3s2)c1)c1ccco1 | inactive
Cc1ccccc1NC(=O)c1cnn(-c2ccccc2)c1C | inconclusive [rising, partial curve]
CC(C)=CCN1CCN(Cc2cnc(N3CCOCC3)s2)CC1CCO (stereo unspecified) | inconclusive [rising, single point]
CCCCn1c(SCC(=O)c2ccc3c(c2)NC(=O)CO3)nc2cc(S(N)(=O)=O)ccc21 | inconclusive [rising, single point]
Cc1ccc(C(=O)N2CCc3ccccc32)cc1 | inactive
COc1ccc(/C=N/NC(=O)c2[nH]c(C)c(C(=O)N/N=C/c3ccc(OC)cc3)c2C)cc1 | inactive
CCc1ccc2nc(NC(=O)c3ccc4c(=O)[nH]c(CN5CCOCC5)nc4c3)sc2c1 | inconclusive [rising, partial curve]

Compound | Potency
Cc1ccc(NC(=O)c2cc(N3C(=O)C=CC3=O)ccc2N2CCOCC2)cc1 | inconclusive [rising, full curve]
CC(=O)OCCCNc1cc(SCc2ccco2)c2nonc2c1[N+](=O)[O-] | inconclusive [rising, single point]
C#CCNc1ccc([N+](=O)[O-])cc1 | inactive
CCCCCC/C(C)=C1/SC(=S)NC1=O | inactive
Cc1cnc(NC(=O)CCCc2nc3ccccc3s2)s1 | inconclusive [rising, single point]
O=c1ccsn1Cc1ccccc1 | active: 5.01 µM
O=C(CN(C(=O)CCC(=O)Nc1nccs1)c1cccc(F)c1)NCc1ccc(F)cc1 | inactive
COc1cccc(CC2(CO)CCCN(Cc3cn[nH]c3C3CCCCC3)C2)c1 (stereo unspecified) | inconclusive [rising, single point]
CSc1nc(N)nc(SCC(=O)Nc2cccc(F)c2)c1C#N | active: 1.41 µM
CC(C)NC(=O)c1cnn2c1NC(c1cccs1)CC2C(F)(F)F (stereo unspecified) | inconclusive [rising, single point]
CCOC(=O)c1sc(N(Cc2ccccc2)C(=O)CSc2nnc(C3CC3)n2N)nc1C | inactive
Fc1ccccc1Cn1nnc2c(NCCc3ccccn3)ncnc21 | active: 12.6 µM
Cc1cc(C)cc(N(C(=O)c2nsc(Cl)c2Cl)C(C(=O)NC2CCCC2)c2ccc(O)cc2)c1 (stereo unspecified) | inactive
Cc1c(C(=O)NCCSCc2ccccc2Cl)cccc1[N+](=O)[O-] | inconclusive [rising, single point]
CC(=O)c1cc2c(cc1NC(=O)CSc1nc3ccccc3[nH]1)OCO2 | inconclusive [rising, single point]
Cc1ccc(C)c(S(=O)(=O)Nc2ccc(O)c(Sc3ncn[nH]3)c2)c1 | inconclusive [rising, partial curve]
CN(C)S(=O)(=O)c1cccc(NC(=O)CSc2cccc3cccnc23)c1 | inconclusive [rising, partial curve]
O=C(Nc1nc2ccccc2n1CCOc1ccccc1)c1ccco1 | inconclusive [rising, single point]
CCOc1cc(S(=O)(=O)N2CCC(Cc3ccccc3)CC2)c(OCC)cc1-n1cnnn1 | inconclusive [rising, single point]
O=C(CN(c1cccc([N+](=O)[O-])c1)S(=O)(=O)c1ccccc1)N(Cc1ccccc1)Cc1ccccc1 | inconclusive [rising, single point]
Cc1cc(C(=O)CCl)c(C)n1-c1c(C)n(C)n(-c2ccccc2)c1=O | inactive
CC(NS(=O)(=O)c1ccccc1Cl)C1CC2CCC1C2 (stereo unspecified) | inactive
CC1Cc2ccccc2N1C(=S)Nc1cccc(S(=O)(=O)N(C)C)c1 (stereo unspecified) | inactive
CCC(C)(C)n1nnnc1CN1CCN(C(c2ccccc2)c2ccccc2)CC1 | inactive
Cc1nc(CN2CCN(Cc3nc(C(c4ccccc4)c4ccccc4)no3)CC2)cs1 | inactive
Cn1nc(C(F)(F)F)c(C#N)c1N1CCN(c2ccc(F)cc2)CC1 | inactive

Compound | Potency
O=C1c2oc3ccccc3c(=O)c2C(c2cccc(Br)c2)N1Cc1ccco1 (stereo unspecified) | active: 20 µM
Oc1[nH]c2ccccc2c1N=Nc1ccccc1F | inactive
CCCCOn1c(C)c(C(=O)OCC)c2c3no[n+]([O-])c3ccc21 | inactive
Cc1ccc([N+](=O)[O-])c2cccnc12 | inactive
Cc1cc(S(=O)(=O)NCCc2ccccc2)c(C)s1 | inactive
O=[N+]([O-])c1ccc(N2CCN(S(=O)(=O)c3ccccc3)CC2)cc1NCc1cccnc1 | inconclusive [rising, full curve]
CCNC(=S)N/N=C(\C)c1cccc(C(F)(F)F)c1 | inactive
Cc1ccc2nc(-c3ccc4c(c3)OCCO4)cn2c1 | inactive
O=C(CSc1nnc(SCc2ccccc2)s1)N/N=C/c1c[nH]c2ccccc12 | inconclusive [rising, single point]
CCCCOc1ccccc1NC(=O)c1ccco1 | inactive
Cn1nc(OCc2ccccc2)ccc1=O | inconclusive [rising, partial curve]
COc1ccc(N(C(=O)CCl)C(C(=O)NCCc2ccccc2)c2cccs2)cc1 (stereo unspecified) | inactive
CCc1nnc(NS(=O)(=O)c2ccc(NC(=S)NC(=O)c3cccnc3)cc2)s1 | inconclusive [rising, single point]
Cc1ccccc1NC(=O)C1CCCN1/C=C/C(=O)C(F)(F)F (stereo unspecified) | inconclusive [rising, single point]
CCCn1c(NCc2c[nH]c3ccccc23)nc2ccccc21 | inactive
CCCCNC(=O)n1c(SC)nc2ccccc21 | inactive
O=C(COC(=O)C1CCN(S(=O)(=O)c2ccc3c(c2)OCCO3)CC1)Nc1cc(C(F)(F)F)ccc1Cl | inconclusive [rising, partial curve]
Cc1ncc([N+](=O)[O-])n1CCOC(=O)c1cc(Cl)cc(Cl)c1N | inconclusive [rising, partial curve]
O=C(O)c1ccc(N2C(=O)/C(=C/c3ccc(-c4ccc([N+](=O)[O-])cc4)o3)C=C2c2ccccc2)cc1 | inconclusive [rising, single point]
Cc1ccc(S(=O)(=O)N2CCCN(S(=O)(=O)c3ccc(C)cc3)CC2)cc1 | active: 8.91 µM
Cc1cccc(S(=O)(=O)C(C#N)c2nc3ccccc3nc2N2CC(C)OC(C)C2)c1 (stereo unspecified) | inconclusive [rising, single point]
O=C(N/N=C/c1ccc(-c2ccccc2[N+](=O)[O-])o1)[C@H]1C[C@@H]1c1ccccc1 | inconclusive [rising, single point]
COc1ccc(CCN2CC(C(=O)N(C)Cc3c(C)n[nH]c3C)CCC2=O)cc1 (stereo unspecified) | inconclusive [rising, single point]
COc1ccc(NC(=O)[C@@H]2[C@@H]3C(=O)N(C4CCCCC4)C(=O)[C@@H]3C3c4ccccc4C=CN32)cc1 (stereo partly specified) | inconclusive [rising, full curve]
